Some of the results follow. At the low end of the ranking the order means little.

The target of this experiment is T1, GST-Rok-C97-191 (UniProt O34857).
T1 sequence: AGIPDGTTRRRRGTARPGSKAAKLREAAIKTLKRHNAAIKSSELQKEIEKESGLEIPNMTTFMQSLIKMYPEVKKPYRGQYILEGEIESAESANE
Nature of the experiment: protein binding microarray.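 Note: rank score from −0.5 (least bound) to 0.5 (best bound).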 The following applies: Rok is a gene silencer of Bacillus subtilis; high values mean tight binding; most listed sequences are background and not binding sites; double strand, one strand shown.
Turning to GTCGGAAA, the binding signal was -0.183 E-score.

Take GGTCCACC: the binding signal is -0.317 E-score.

For the sequence CTTGGTCA, the binding signal was -0.124 E-score.

ATTGTTCC gave a binding signal of 0.0563 E-score.

As to AGGTCCCA, the binding signal was -0.198 E-score.

AACTGCTT displayed a binding signal of 0.0877 E-score.

ACCCTAGG: the binding signal was -0.16 E-score.

On to ACGCGAGT, for which the binding signal is -0.13 E-score.

Turning to CGCGCGCC, the binding signal is -0.303 E-score.

On to CCTTAGAC, for which the binding signal is -0.116 E-score.

In the case of CACTGCAA, the binding signal is -0.0443 E-score.

CAACAACG: the binding signal was -0.0212 E-score.

As to AAGAAGCG, the binding signal was -0.218 E-score.

Turning to TATGTAGA, the binding signal amounted to 0.276 E-score.

In the case of CCAAAAAC, the binding signal turned out to be 0.0489 E-score.

AAAAAACG registered a binding signal of 0.0416 E-score.

In turn, TAGTAACA gave a binding signal of 0.345 E-score.

CTAGTATC returned a binding signal of 0.111 E-score.

ATAGATTA: the binding signal came out at 0.331 E-score.

ATCAACAG: the binding signal turned out to be 0.18 E-score.

Turning to GCGCGTCA, the binding signal is -0.288 E-score.

For ACGCTGAA, the binding signal was -0.00639 E-score.

As to AGCACACA, the binding signal is -0.174 E-score.

In the case of AATAACCC, the binding signal was -0.0587 E-score.

The sequence ATATTCCA came in with a binding signal of 0.198 E-score.

For CAACTGGC, the binding signal is -0.253 E-score.

Turning to GACTTAGC, the binding signal is -0.0763 E-score.

Take GGGGAACA: the binding signal turned out to be 0.0681 E-score.

In turn, AACGCGAT returned a binding signal of 0.0148 E-score.

The sequence CGTTGAAG returned a binding signal of 0.0217 E-score.

Turning to CTCCGCCC, the binding signal is -0.339 E-score.

For the sequence CAAGCCTG, the binding signal is -0.132 E-score.

Turning to AGTGCACT, the binding signal came out at 0.024 E-score.

As to ATGGCATG, the binding signal was -0.113 E-score.

In the case of CGTTAGCA, the binding signal is -0.205 E-score.

For GGCGAGAC, the binding signal was -0.266 E-score.

In the case of CCACACCA, the binding signal stood at 0.0485 E-score.

Take GCTCCCGA: the binding signal was -0.201 E-score.

As for ACCGAAAG, the binding signal was -0.159 E-score.

GACGTGCC: the binding signal is -0.347 E-score.

In the case of CACGAACA, the binding signal was -0.0928 E-score.

As for ATCACAGG, the binding signal was -0.135 E-score.

In the case of AGACTTAG, the binding signal is -0.0257 E-score.

As to AGGGTGGG, the binding signal is -0.125 E-score.

Regarding CTTTAACA, the binding signal was 0.072 E-score.

In turn, CGGTCAAA had a binding signal of 0.0606 E-score.

For ACAGGATC, the binding signal is -0.0138 E-score.

On to ATTGATGC, for which the binding signal was -0.0432 E-score.

In turn, AATGATTC came in with a binding signal of 0.0669 E-score.

Take CCTGCCCA: the binding signal was -0.371 E-score.

As to CTCCGCAA, the binding signal is -0.13 E-score.

Consider GATGTCCC, for which the binding signal was -0.267 E-score.

Take AGATGATC: the binding signal was -0.126 E-score.

Take ACAGCCGA: the binding signal was -0.00523 E-score.

As to CGCTTTGA, the binding signal is -0.0415 E-score.

TACTGGCA: the binding signal turned out to be 0.0047 E-score.

Turning to AGGAGTAA, the binding signal was -0.0565 E-score.

TATTACGA displayed a binding signal of 0.252 E-score.

In turn, ATTCATTC showed a binding signal of 0.033 E-score.

In turn, GTCTGGTA came in with a binding signal of 0.0399 E-score.

As for AATAAGCA, the binding signal stood at 0.0965 E-score.

Consider CGCTTGCA, for which the binding signal is -0.261 E-score.

On to CATTCACG, for which the binding signal is 0.00676 E-score.

Turning to AAGGAAAG, the binding signal was -0.284 E-score.

Regarding CACGCCGG, the binding signal was -0.382 E-score.

For the sequence ATGATAAC, the binding signal was 0.174 E-score.

For the sequence GGAGTGTA, the binding signal was 0.029 E-score.

In the case of GGCGGTAC, the binding signal is -0.0765 E-score.

CCCATGGA: the binding signal is -0.24 E-score.

For the sequence ACGACTGA, the binding signal is -0.0257 E-score.

Consider AGCAGGTC, for which the binding signal is -0.196 E-score.

Regarding CACGGCCC, the binding signal was -0.408 E-score.

With GTCCTTTA, the binding signal is -0.181 E-score.

As to CTGGATCA, the binding signal was -0.00588 E-score.

AAGCGCTG had a binding signal of 0.0428 E-score.

The sequence ATTAATAC registered a binding signal of 0.335 E-score.

Take TGGTCCAA: the binding signal is -0.175 E-score.

On to GACTCAGC, for which the binding signal was -0.158 E-score.

In turn, GTCCGAAA yielded a binding signal of 0.0712 E-score.

As to GCGCCCCC, the binding signal was -0.301 E-score.

Take GAGAATAC: the binding signal was 0.163 E-score.

For CAAGACTG, the binding signal is -0.0131 E-score.

On to GATCGTGC, for which the binding signal was -0.0453 E-score.

As to ATATACGG, the binding signal came to 0.218 E-score.

For the sequence ATCTCACA, the binding signal stood at 0.0535 E-score.

The sequence AGAATATG registered a binding signal of 0.268 E-score.

With AGTCAGGC, the binding signal is -0.084 E-score.

As for CTGCGCAG, the binding signal was -0.0762 E-score.

Turning to CTCACGAC, the binding signal was -0.125 E-score.

CAGACCCA registered a binding signal of 0.0335 E-score.

In turn, AGTTGGTG yielded a binding signal of 0.00668 E-score.

AAGCGCGT: the binding signal was -0.151 E-score.

The sequence GATACACA had a binding signal of 0.228 E-score.

In the case of CGACAGGC, the binding signal is -0.362 E-score.

Consider CGTTCGCC, for which the binding signal is -0.124 E-score.

As to ACAGGTTC, the binding signal was -0.0931 E-score.

In turn, AGGTTTGG had a binding signal of 0.0727 E-score.

With CCCCACCG, the binding signal is -0.267 E-score.

The sequence ATTAAGTG registered a binding signal of 0.16 E-score.

Turning to CCCCCATA, the binding signal is -0.212 E-score.

For the sequence GACTCCAC, the binding signal is -0.29 E-score.

GATCCTAC displayed a binding signal of 0.103 E-score.

For the sequence ATAGATAA, the binding signal is 0.325 E-score.

As to TGCGTCAA, the binding signal was -0.0045 E-score.

For AGCACCGC, the binding signal is -0.0541 E-score.

CTCGGGAA: the binding signal was found to be 0.0169 E-score.

In the case of AACAGCCT, the binding signal is -0.182 E-score.

As for CGACGCCA, the binding signal was -0.216 E-score.

On to CATAGCTC, for which the binding signal amounted to 0.00142 E-score.

On to AGCCAATC, for which the binding signal is -0.0858 E-score.

As to CACGTAGC, the binding signal turned out to be 0.0195 E-score.

As for CGAACGAA, the binding signal is -0.11 E-score.

In the case of ATTTTTTG, the binding signal was 0.0872 E-score.

As for CCACAAGC, the binding signal was -0.034 E-score.

As to GTACCAAA, the binding signal came to 0.0172 E-score.

Turning to GACGCGGA, the binding signal was -0.0842 E-score.

Take TTATATAA: the binding signal was found to be 0.384 E-score.

GCGACTCA: the binding signal was -0.0909 E-score.

Sequence AAGTACCC gave a binding signal of 0.124 E-score.

CCTACCCC: the binding signal was -0.147 E-score.

In turn, ATTGCGAC gave a binding signal of 0.173 E-score.

CTACCCAC: the binding signal is -0.0303 E-score.

Turning to ATGAATAC, the binding signal was found to be 0.036 E-score.

Regarding TAAATTCA, the binding signal came out at 0.288 E-score.

Consider GATGATGA, for which the binding signal is -0.0239 E-score.

GCGTCTTA: the binding signal was -0.0438 E-score.

For the sequence AATTGGCA, the binding signal is -0.0144 E-score.

Turning to GCGTCCGA, the binding signal is -0.026 E-score.

Consider GACGTCCA, for which the binding signal was -0.247 E-score.

CGATATCA: the binding signal was 0.109 E-score.

For AGCGGCCG, the binding signal was -0.112 E-score.

GCGCTCTA: the binding signal came to 0.0916 E-score.

As to CCATCCCG, the binding signal is -0.0704 E-score.

Take AGACGCAA: the binding signal was -0.122 E-score.

For the sequence CATGCAAG, the binding signal was -0.0362 E-score.

CATGCATA: the binding signal is 0.071 E-score.

On to AAGTCTGG, for which the binding signal is -0.0849 E-score.

In the case of AGGTCGTC, the binding signal was -0.183 E-score.

In the case of CCTTTTAA, the binding signal is -0.0834 E-score.

As to GAAAGCAA, the binding signal is -0.112 E-score.

For the sequence CTTCTCAA, the binding signal worked out at 0.00407 E-score.

Consider AAGAGTAG, for which the binding signal was 0.212 E-score.

For AAGTCGGA, the binding signal is -0.121 E-score.

In the case of ACTCGCTA, the binding signal is 0.00406 E-score.

With GCGCCACC, the binding signal was -0.169 E-score.

Sequence ATCTAGGC came in with a binding signal of 0.0159 E-score.

Turning to GATACCCC, the binding signal was -0.11 E-score.

Turning to ATTGCAGA, the binding signal was -0.151 E-score.

For ATGCGGGC, the binding signal was -0.167 E-score.

Sequence GTAATTAC showed a binding signal of 0.43 E-score.

In the case of CTCGCGAG, the binding signal is -0.0756 E-score.

For GAATGAGC, the binding signal was -0.132 E-score.

In the case of CTTCATCA, the binding signal is -0.0875 E-score.

Take GGATAACC: the binding signal is -0.0647 E-score.

Regarding ATCCTTCA, the binding signal is -0.078 E-score.

As to AGAAGTGG, the binding signal was -0.102 E-score.

In the case of CTCGTTGC, the binding signal is -0.146 E-score.

Consider AATCAGCT, for which the binding signal is -0.0916 E-score.

Regarding ACTATCCT, the binding signal is 0.0451 E-score.

For the sequence ACAGTCAT, the binding signal is -0.0276 E-score.

For the sequence CCCCGCGG, the binding signal was -0.269 E-score.

Take CAGAGTCC: the binding signal is -0.384 E-score.

Take CATACGTC: the binding signal was -0.0219 E-score.

For TAGAGTGA, the binding signal is -0.151 E-score.

In turn, ACCGGATA registered a binding signal of 0.0326 E-score.

In the case of AAGACAAC, the binding signal is -0.213 E-score.

Regarding ACCTTAGG, the binding signal was -0.104 E-score.

Regarding ATCCGGAG, the binding signal is -0.0922 E-score.

Turning to CGGTCAAG, the binding signal is -0.131 E-score.

In turn, ATTCAGTG had a binding signal of 0.00617 E-score.

Consider CCTGCTGC, for which the binding signal was -0.273 E-score.

Take AAGCACAT: the binding signal came to 0.0735 E-score.

For the origin of these results see paper PMC6212790.
